Results on 57 compounds are retold here after paper PMC4336329 (PLoS ONE, 2015).

The campaign covered roughly 310,000 compounds. About 2,200 (0.71%) showed an effect of 50% or more. Effects have a minus sign here. The list shows a part of the results.

Sequence of human ether-à-go-go-related gene (hERG) potassium channel (Q12809 whole entry, looked up): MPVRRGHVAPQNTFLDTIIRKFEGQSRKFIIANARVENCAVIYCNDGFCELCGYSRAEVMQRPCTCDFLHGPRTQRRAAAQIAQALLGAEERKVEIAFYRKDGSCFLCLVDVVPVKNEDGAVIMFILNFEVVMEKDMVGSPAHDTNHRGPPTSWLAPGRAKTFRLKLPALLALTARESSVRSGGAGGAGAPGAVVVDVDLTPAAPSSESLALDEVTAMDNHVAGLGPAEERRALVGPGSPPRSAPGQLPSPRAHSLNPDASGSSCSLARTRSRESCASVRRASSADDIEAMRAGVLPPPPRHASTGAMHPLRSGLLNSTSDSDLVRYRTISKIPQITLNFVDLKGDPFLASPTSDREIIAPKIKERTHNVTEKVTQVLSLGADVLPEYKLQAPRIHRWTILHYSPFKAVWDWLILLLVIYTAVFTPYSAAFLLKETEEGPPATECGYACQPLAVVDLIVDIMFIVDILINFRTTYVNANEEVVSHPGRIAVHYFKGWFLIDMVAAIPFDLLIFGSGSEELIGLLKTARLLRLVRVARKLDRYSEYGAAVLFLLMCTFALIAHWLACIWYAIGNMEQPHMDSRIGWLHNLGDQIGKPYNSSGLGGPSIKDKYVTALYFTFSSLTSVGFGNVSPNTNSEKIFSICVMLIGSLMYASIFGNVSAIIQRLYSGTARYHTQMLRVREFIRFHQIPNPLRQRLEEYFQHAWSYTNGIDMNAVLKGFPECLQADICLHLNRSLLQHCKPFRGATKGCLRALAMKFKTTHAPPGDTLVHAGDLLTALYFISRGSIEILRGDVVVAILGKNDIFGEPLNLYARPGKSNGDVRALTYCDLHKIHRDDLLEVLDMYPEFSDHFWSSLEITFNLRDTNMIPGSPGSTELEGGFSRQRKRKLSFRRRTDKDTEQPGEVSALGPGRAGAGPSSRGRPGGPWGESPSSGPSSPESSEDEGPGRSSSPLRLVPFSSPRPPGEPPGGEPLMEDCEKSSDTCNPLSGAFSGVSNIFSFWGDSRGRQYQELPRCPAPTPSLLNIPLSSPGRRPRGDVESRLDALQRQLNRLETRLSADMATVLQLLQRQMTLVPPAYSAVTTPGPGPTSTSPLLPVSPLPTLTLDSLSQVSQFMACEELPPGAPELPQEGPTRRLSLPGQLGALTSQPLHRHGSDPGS

This assay has as its target human ether-à-go-go-related gene (hERG) potassium channel (human, UniProt Q12809). In words: primary screen, population patch clamp on CHO cells stably expressing hERG.
For `Cc1nnc(NNS(=O)(=O)c2ccc(Cl)cc2)[nH]c1=O`, the “hERG current change (%, negative = inhibition) at 1uM” value came out at 5.2%. For `COc1ccccc1C(=O)Nc1c2c(nn1-c1cccc(C)c1C)CS(=O)C2` (stereo not drawn) the value was -3.22%. For `CCCC(=O)Nc1ccc(C(=O)NNC(=S)NC(=O)c2cccs2)cc1` the value was 4.72%. For `Cn1ncc([N+](=O)[O-])c1C(=O)Nc1ccn(Cc2ccccc2F)n1` the value was 0.924%; for `CCOC(=O)C1(CCOC)CCN(Cc2ccc(C3CCCCO3)s2)CC1` (stereo not drawn), 4.44%. Take `Cc1ccc(N=Nc2cc(C)ccc2O)c(C)c1`: the “hERG current change (%, negative = inhibition) at 1uM” value was 6.78%. For `COC(=O)[C@H]1C[C@H](C(=O)O)[C@@H](C)C1(C)C` the value was 9.34%; for `O=C(CSc1nc2ccccc2s1)NC1CCCc2ccccc21` (stereo not drawn), 11.2%. For `COc1ccc(CCNS(=O)(=O)c2cn(C)c(=O)n(C)c2=O)cc1` the value was 21.7%. For `O=[N+]([O-])c1cc(CN2CCC(O)CC2)ccc1Cl` the value was 8.39%; for `Cc1ccc(-n2ncc3c2CC(C)(C)CC3NC(=O)c2ccccn2)cc1` (stereo not drawn), 5.27%; for `CCCNC(=O)CS(=O)Cc1nc(-c2cccc(OC)c2)oc1C` (stereo not drawn), 11.3%.

For `O=C(c1cc(COc2ccc(-n3cncn3)cc2)on1)N1CCCC1`, the “hERG current change (%, negative = inhibition) at 1uM” value is 4.01%. For `Cc1cc(Cl)ccc1N(CC(=O)NCc1ccc2c(c1)OCO2)S(C)(=O)=O` the value was 3.99%. Then `Cc1ccc2nc(-c3ccc(NC(=O)CSc4nc(N)cc(=O)[nH]4)cc3)sc2c1`, with 2.36%. For `Cc1ccccc1N1CC(C(=O)O)CC1=O` (stereo not drawn) the value was 13.8%; for `COc1ccc(Cl)cc1NC(=O)CN(C)CC(=O)NC(C)c1ccccc1` (stereo not drawn), 6.51%.

On to `O=S(=O)(Nc1nc2ccccc2nc1-[n+]1ccccc1)c1ccc(Cl)cc1.[Cl-]`, for which the “hERG current change (%, negative = inhibition) at 1uM” value is on record as 16.9%. Then `Cc1csc2nc3cc(C(N)=O)ccc3c(=O)n12`, with 10.2%; and `O=C1c2ccccc2C(=O)N1CCc1c[nH]c2ccccc12`, with 7.76%.

Turning to `O=C1CCCCC1C(=O)c1cn(-c2ccc(Cl)c(Cl)c2)nn1` (stereo not drawn), the “hERG current change (%, negative = inhibition) at 1uM” value is given as 10.2%. Then `O=C(N/C(=C\c1ccc(Cl)cc1)C(=O)N1CCOCC1)c1ccc([N+](=O)[O-])cc1`, with -88.2%; and `O=C(CSc1nnnn1C1CC2CCC1C2)Nc1ccnc2ccccc12` (stereo not drawn), with 12.2%; and `COc1ccc(C2=NOC(C)(c3nnc(Cc4ccccc4)o3)C2)cc1` (stereo not drawn), with 6.97%.

For the compound `O=C(c1ccc2ccccc2c1)N1CCCCC1`, the “hERG current change (%, negative = inhibition) at 1uM” value came to 9.33%. Then `Fc1ccc(NC(=S)NN=C2CCCCCC2)cc1`, with 12.1%; and `Cc1ccc(-c2c(C)c(-c3ccc(F)cc3)nc(N)c2C#N)o1`, with -1.47%. In the case of `COc1cccc(C2=CC(=O)CCC2)c1OC`, the “hERG current change (%, negative = inhibition) at 1uM” value turned out to be 17.6%. For `COc1cccc(NC(=S)N2CCN(S(=O)(=O)c3ccc(F)cc3)CC2)c1` the value was 5.32%; for `Cc1ccc(S(=O)(=O)N2CCN(c3ccc([N+](=O)[O-])c(Sc4nncn4C)c3)CC2)cc1`, -8.87%. For `Oc1nc(-c2ccc(Cl)cc2)n2ccncc12` the value was 27.5%; for `CCOC(=O)CSC1=C(C#N)C(c2ccc(Cl)cc2)C(C(=O)OC)C(=O)N1` (stereo not drawn), 7.34%; for `CCCCOC(=O)Nc1nc2ccccc2s1`, -3.96%.

Turning to `COc1cccc(CNC(=O)CN(C)S(=O)(=O)c2cnc[nH]2)c1`, the “hERG current change (%, negative = inhibition) at 1uM” value is given as 15.3%. Take `O=C(CN1CCN(c2ccccn2)CC1)NCCc1ccccc1`: the “hERG current change (%, negative = inhibition) at 1uM” value is listed as 1.52%. Regarding `O=C(O)C1C2CCC(C2)C1C(=O)Nc1cc(F)ccc1F` (stereo not drawn), the “hERG current change (%, negative = inhibition) at 1uM” value is -1.26%. Then `CN(CC(=O)Nc1c(Cl)cccc1Cl)C(=O)c1cccc(-n2cccc2)c1`, with -0.706%; and `CC(C)(C)NC(=O)c1ccc(NC(=O)C2COc3ccccc3O2)cc1` (stereo not drawn), with 10.5%; and `COc1cccc(CN2CC(C(=O)NCCOc3ccccc3F)CCC2=O)c1` (stereo not drawn), with 9.67%. For `Cn1cc(C(=O)Nc2ccc(F)c(F)c2)cn1` the value was 16.6%; for `O=C(Cn1nnc(-c2cccs2)n1)N1c2ccccc2Sc2ccc(C(F)(F)F)cc21`, 13.5%. Then `COc1ccccc1-c1nnc(SC(C(=O)c2c[nH]c3ccccc23)c2ccccc2)n1C` (stereo not drawn), with 18.3%. On to `C[C@H]1CN=C2N(CCNC(=O)CCC3CCCCC3)[C@H](Cc3ccc(O)cc3)CN21`, for which the “hERG current change (%, negative = inhibition) at 1uM” value is on record as 14.3%. For `C=C(c1ccc(OC)cc1)c1ccc(OC)cc1` the value was 3.04%. For `CCOC(=O)c1cccc(NC(=O)C2CCCN(c3nnc(N4CCCC4=O)s3)C2)c1` (stereo not drawn) the value was 9.44%; for `CC(NC(=O)c1cc([N+](=O)[O-])cc([N+](=O)[O-])c1)c1ccc(-n2ccnc2)cc1` (stereo not drawn), -18%.

Regarding `COc1cc(C(=O)Nc2ccn(C)n2)ccc1OC(F)F`, the “hERG current change (%, negative = inhibition) at 1uM” value turned out to be 5.7%. For `O=C(CSc1nnc(NC(=O)c2ccccc2C(=O)O)s1)Nc1ccccc1Cl` the value was 19.6%; for `CC(=O)N=c1scc(-c2ccccc2)n1-c1cccc(O)c1`, 16%; for `CON1C(=O)C(=O)N(OC)C(C)(C)C1C` (stereo not drawn), 0.752%.

Turning to `Cc1c(Cl)cccc1NC(=S)N(Cc1ccccc1)Cc1cccnc1`, the “hERG current change (%, negative = inhibition) at 1uM” value is given as 11.5%. `CC(C)c1nc(SCC(=O)N2c3ccccc3CC2C)c2ccccc2n1` (stereo not drawn): the “hERG current change (%, negative = inhibition) at 1uM” value is reported as -2.81%. For `Cn1c(NNC(=O)/C=C/c2ccc3c(c2)OCO3)cc(=O)n(C)c1=O` the value was 14.3%. With `C#Cc1cccc(-n2nnc(C(=O)OC)c2-c2ccccc2)c1`, the “hERG current change (%, negative = inhibition) at 1uM” value is 8.91%.

Take `Cc1ccc(C(=O)Nc2ccccc2C(=O)NC(Cc2ccccc2)C(=O)O)cc1` (stereo not drawn): the “hERG current change (%, negative = inhibition) at 1uM” value stood at 10.7%. For `Cc1ccc(Cn2nnc3c(=O)n(Cc4ccccc4C)cnc32)cc1` the value was 9.05%. Turning to `O=C(O)C1CCC(Cn2c(SCc3cc(=O)n4cc(Br)ccc4n3)nc3ccsc3c2=O)CC1` (stereo not drawn), the “hERG current change (%, negative = inhibition) at 1uM” value turned out to be 5.8%.
